# The supplement of paper PMC8728848
# This is one part of the list.
# Key:
# Experiment in all cases: glycan array binding signal (z-score within array); higher = stronger binding
# Details in all cases: glycan notation: IUPAC condensed, linker removed
# [1] = biological target: GlcNAc(b1-4)GlcNAc(b1-4)GlcNAc(b1-4)GlcNAc(b1-4)GlcNAc
# In short: (§1)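 The binding signal is a Z-score computed within each array. Data were drawn from 3228 arrays in the Consortium for Functional Glycomics database, restricted to those with a known protein sequence. Scores were averaged over arrays of the same protein sequence at different concentrations or buffers, and over linkers, and negative values can be taken as non-binding.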
# [2] = biological target: GlcNAc(b1-4)GlcNAc(b1-4)GlcNAc(b1-4)GlcNAc(b1-4)GlcNAc(b1-4)GlcNAc
# In short: as §1
# [3] = biological target: GlcNAc(b1-4)[GlcNAc(b1-6)]GalNAc
# In short: as §1
# [4] = biological target: GlcNAc(b1-6)Gal(b1-4)GlcNAc
# In short: as §1
# [5] = biological target: GlcNAc(b1-6)GalNAc
# In short: as §1
# [6] = biological target: Kdn(a2-3)Gal(b1-3)GlcNAc
# In short: as §1
# [7] = biological target: Kdn(a2-3)Gal(b1-4)GlcNAc
# In short: as §1
# [8] = biological target: Man(a1-2)Man(a1-2)Man(a1-3)Man
# In short: as §1
# [9] = biological target: Man(a1-2)Man(a1-2)Man(a1-6)[Man(a1-3)]Man
# In short: as §1
# [10] = biological target: Man(a1-2)Man(a1-3)Man
# In short: as §1
# [11] = biological target: Man(a1-2)Man(a1-3)[Man(a1-2)Man(a1-6)]Man
# In short: as §1
# [12] = biological target: Man(a1-2)Man(a1-3)[Man(a1-2)Man(a1-6)]Man(a1-6)[Man(a1-2)Man(a1-2)Man(a1-3)]Man(b1-4)GlcNAc(b1-4)GlcNAc
# In short: as §1
# [13] = biological target: Man(a1-2)Man(a1-3)[Man(a1-6)]Man(a1-6)[Man(a1-2)Man(a1-3)]Man(b1-4)GlcNAc(b1-4)GlcNAc
# In short: as §1
# [14] = biological target: Man(a1-2)Man(a1-6)[Man(a1-3)]Man(a1-6)[Man(a1-2)Man(a1-2)Man(a1-3)]Man(b1-4)GlcNAc(b1-4)GlcNAc
# In short: as §1
# [15] = biological target: Man(a1-3)[Man(a1-6)]Man
# In short: as §1
# [16] = biological target: Man(a1-3)[Man(a1-6)]Man(a1-6)[Man(a1-2)Man(a1-3)]Man(b1-4)GlcNAc(b1-4)GlcNAc
# In short: as §1
# [17] = biological target: Man(a1-3)[Man(a1-6)]Man(a1-6)[Man(a1-3)]Man(b1-4)GlcNAc(b1-4)GlcNAc
# In short: as §1
# [18] = biological target: Man(a1-3)[Man(a1-6)]Man(b1-4)GlcNAc(b1-4)GlcNAc
# In short: as §1
# [19] = biological target: Man(b1-4)GlcNAc
# In short: as §1
# [20] = biological target: Neu5Ac(a2-3)Gal
# In short: as §1
# [21] = biological target: Neu5Ac(a2-3)Gal(b1-3)GalNAc
# In short: as §1
# [22] = biological target: Neu5Ac(a2-3)Gal(b1-3)GalNAc(b1-3)Gal(a1-4)Gal(b1-4)Glc
# In short: as §1
# [23] = biological target: Neu5Ac(a2-3)Gal(b1-3)GalNAc(b1-3)Gal(b1-4)GlcNAc
# In short: as §1
# [24] = biological target: Neu5Ac(a2-3)Gal(b1-3)GalNAc(b1-4)[Neu5Ac(a2-3)]Gal(b1-4)Glc
# In short: as §1
# [25] = biological target: Neu5Ac(a2-3)Gal(b1-3)GalNAc6S
# In short: as §1
# [26] = biological target: Neu5Ac(a2-3)Gal(b1-3)GlcNAc
# In short: as §1
# [27] = biological target: Neu5Ac(a2-3)Gal(b1-3)GlcNAc6S
# In short: as §1
# [28] = biological target: Neu5Ac(a2-3)Gal(b1-3)[Fuc(a1-4)]GlcNAc
# In short: as §1
# [29] = biological target: Neu5Ac(a2-3)Gal(b1-3)[Fuc(a1-4)]GlcNAc(b1-3)Gal(b1-4)[Fuc(a1-3)]GlcNAc
# In short: as §1
# [30] = biological target: Neu5Ac(a2-3)Gal(b1-3)[Neu5Ac(a2-3)Gal(b1-4)]GlcNAc
# In short: as §1
# [31] = biological target: Neu5Ac(a2-3)Gal(b1-3)[Neu5Ac(a2-6)]GalNAc
# In short: as §1
# [32] = biological target: Neu5Ac(a2-3)Gal(b1-4)Glc
# In short: as §1
# [33] = biological target: Neu5Ac(a2-3)Gal(b1-4)GlcNAc
# In short: as §1
# [34] = biological target: Neu5Ac(a2-3)Gal(b1-4)GlcNAc(b1-2)Man(a1-3)[Neu5Ac(a2-3)Gal(b1-4)GlcNAc(b1-2)Man(a1-6)]Man(b1-4)GlcNAc(b1-4)GlcNAc
# In short: as §1
# [35] = biological target: Neu5Ac(a2-3)Gal(b1-4)GlcNAc(b1-3)Gal(b1-4)GlcNAc
# In short: as §1
# [36] = biological target: Neu5Ac(a2-3)Gal(b1-4)GlcNAc(b1-3)Gal(b1-4)GlcNAc(b1-3)Gal(b1-4)GlcNAc
# In short: as §1
# [37] = biological target: Neu5Ac(a2-3)Gal(b1-4)GlcNAc(b1-3)Gal(b1-4)[Fuc(a1-3)]GlcNAc
# In short: as §1
binder,measurement,setting,value
FaeGab (Escherichia coli) (protein) WMTGDFNGSVDIGGSITADDYRQKWEWKVGTGLNGFGNVLNDLTNGGTKLTITVTGNKPILLGRTKEAFATPVSGGVDGIPQIAFTDYEGASVKLRNTDGETNKGLAYFVLPMKNAEGTKVGSVKVNASYAGVFGKGGVTSADGELFSLFADGLRAIFYGGLTTTVSGAALTSGSAAAARTELFGSLSRNDILGQIQRVNANITSLVDVAGSYREDMEYTDGTVVSAAYALGIANGQTIEATFNQAVTTSTQWSAPLNVAITYY,glycan array binding signal (z-score),[1],0.153
same,glycan array binding signal (z-score),[2],0.04
same,glycan array binding signal (z-score),[3],0.249
same,glycan array binding signal (z-score),[4],0.324
same,glycan array binding signal (z-score),[5],0.537
same,glycan array binding signal (z-score),[6],-0.305
same,glycan array binding signal (z-score),[7],-0.278
same,glycan array binding signal (z-score),[8],0.394
same,glycan array binding signal (z-score),[9],1.91
same,glycan array binding signal (z-score),[10],-0.083
same,glycan array binding signal (z-score),[11],1.34
same,glycan array binding signal (z-score),[12],0.723
same,glycan array binding signal (z-score),[13],1.02
same,glycan array binding signal (z-score),[14],1.2
same,glycan array binding signal (z-score),[15],-0.091
same,glycan array binding signal (z-score),[16],0.241
same,glycan array binding signal (z-score),[17],-0.255
same,glycan array binding signal (z-score),[18],-0.304
same,glycan array binding signal (z-score),[19],-0.276
same,glycan array binding signal (z-score),[20],-0.477
same,glycan array binding signal (z-score),[21],-0.435
same,glycan array binding signal (z-score),[22],-0.363
same,glycan array binding signal (z-score),[23],-0.486
same,glycan array binding signal (z-score),[24],-0.435
same,glycan array binding signal (z-score),[25],-0.441
same,glycan array binding signal (z-score),[26],-0.476
same,glycan array binding signal (z-score),[27],-0.218
same,glycan array binding signal (z-score),[28],-0.431
same,glycan array binding signal (z-score),[29],0.808
same,glycan array binding signal (z-score),[30],-0.529
same,glycan array binding signal (z-score),[31],-0.403
same,glycan array binding signal (z-score),[32],-0.397
same,glycan array binding signal (z-score),[33],-0.399
same,glycan array binding signal (z-score),[34],0.621
same,glycan array binding signal (z-score),[35],-0.483
same,glycan array binding signal (z-score),[36],-0.511
same,glycan array binding signal (z-score),[37],0.134
